{"source": "the supplement of paper PMC12645437", "about": "“Orthogonal IMiD-Degron Pairs Induce Selective Protein Degradation in Cells” (ACS Chemical Biology, 2025)", "note": "The list shows a part of the results.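 Further: jurkat cells carrying a lentiviral library of mutant zinc finger degrons fused to EGFP plus mCherry, mCherry+ cells FACS sorted, degron abundance counted by next-generation sequencing.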", "data": [{"target": "no compound (DMSO)", "assay": "log2 fold change of degron read counts, EGFP-low vs EGFP+ sorted cells; higher = lower degron-EGFP level without compound (poor expression or instability)", "details": "compound: DMSO control; 18 h", "values": [{"sequence": "FFCNQCGHIFTQKGNLLRHIKL", "log2 fold change of degron read counts": 0.984}, {"sequence": "LNCPICGFGCTQKGNLLRHIKL", "log2 fold change of degron read counts": 0.586}, {"sequence": "FHCPICGRKFTQKGNLLRHIKL", "log2 fold change of degron read counts": -2.23}, {"sequence": "FLCPICGRCFTQKGNLLRHIKL", "log2 fold change of degron read counts": -0.49}, {"sequence": "LVCNQCGFICTQKGNLLRHIKL", "log2 fold change of degron read counts": 0.916}, {"sequence": "FMCSVCGHKFTQKGNLLRHIKL", "log2 fold change of degron read counts": -0.512}, {"sequence": "FGCEVCGAIFTQKGNLLRHIKL", "log2 fold change of degron read counts": -0.567}, {"sequence": "FMCPICGHVFTQKGNLLRHIKL", "log2 fold change of degron read counts": -0.0172}, {"sequence": "FECSVCGHYFTQKGNLLRHIKL", "log2 fold change of degron read counts": -0.658}, {"sequence": "FWCEICGREFTQKGNLLRHIKL", "log2 fold change of degron read counts": -1.31}, {"sequence": "FGCNICGAFFTQKGNLLRHIKL", "log2 fold change of degron read counts": 0.0684}, {"sequence": "FFCPICGRVFTQKGNLLRHIKL", "log2 fold change of degron read counts": 0.0183}, {"sequence": "FACEICGHWFTQKGNLLRHIKL", "log2 fold change of degron read counts": -0.215}, {"sequence": "FQCNICGAKFTQKGNLLRHIKL", "log2 fold change of degron read counts": -1.47}, {"sequence": "FECEICGAPFTQKGNLLRHIKL", "log2 fold change of degron read counts": -1.47}, {"sequence": "FWCEICGHHFTQKGNLLRHIKL", "log2 fold change of degron read counts": 0.404}, {"sequence": "FWCEICGADFTQKGNLLRHIKL", "log2 fold change of degron read counts": -1.16}, {"sequence": "LDCEICGFACTQKGNLLRHIKL", "log2 fold change of degron read counts": 0.268}, {"sequence": "FRCNQCGRPFTQKGNLLRHIKL", "log2 fold change of degron read counts": 0.607}, {"sequence": "FGCNQCGAAFTQKGNLLRHIKL", "log2 fold change of degron read counts": -0.0235}, {"sequence": "FSCSVCGHEFTQKGNLLRHIKL", "log2 fold change of degron read counts": -2.01}, {"sequence": "FYCEVCGARFTQKGNLLRHIKL", "log2 fold change of degron read counts": -1.53}, {"sequence": "FNCSVCGHLFTQKGNLLRHIKL", "log2 fold change of degron read counts": 0.275}, {"sequence": "FMCPICGRVFTQKGNLLRHIKL", "log2 fold change of degron read counts": 0.146}, {"sequence": "FGCNVCGAPFTQKGNLLRHIKL", "log2 fold change of degron read counts": 0.409}, {"sequence": "FQCPICGHWFTQKGNLLRHIKL", "log2 fold change of degron read counts": 0.567}, {"sequence": "FVCDVCGAYFTQKGNLLRHIKL", "log2 fold change of degron read counts": -0.612}, {"sequence": "LRCPICGFGCTQKGNLLRHIKL", "log2 fold change of degron read counts": 1.24}, {"sequence": "FHCDICGADFTQKGNLLRHIKL", "log2 fold change of degron read counts": -1.68}, {"sequence": "FMCPVCGAGFTQKGNLLRHIKL", "log2 fold change of degron read counts": -0.0195}, {"sequence": "FNCDICGAYFTQKGNLLRHIKL", "log2 fold change of degron read counts": -0.163}, {"sequence": "FMCPICGREFTQKGNLLRHIKL", "log2 fold change of degron read counts": -0.534}, {"sequence": "LYCPICGFRCTQKGNLLRHIKL", "log2 fold change of degron read counts": 0.607}, {"sequence": "FSCPICGHSFTQKGNLLRHIKL", "log2 fold change of degron read counts": -0.821}, {"sequence": "FVCPICGHWFTQKGNLLRHIKL", "log2 fold change of degron read counts": -1.78}, {"sequence": "FWCNQCGRMFTQKGNLLRHIKL", "log2 fold change of degron read counts": 1.03}, {"sequence": "FRCDQCGACFTQKGNLLRHIKL", "log2 fold change of degron read counts": -1.14}, {"sequence": "FICPQCGAVFTQKGNLLRHIKL", "log2 fold change of degron read counts": 0.112}, {"sequence": "FICEICGRGFTQKGNLLRHIKL", "log2 fold change of degron read counts": -2.84}, {"sequence": "FRCEICGAMFTQKGNLLRHIKL", "log2 fold change of degron read counts": -0.787}, {"sequence": "FICNICGAQFTQKGNLLRHIKL", "log2 fold change of degron read counts": -0.438}, {"sequence": "FFCNVCGANFTQKGNLLRHIKL", "log2 fold change of degron read counts": -0.161}, {"sequence": "FCCNQCGHIFTQKGNLLRHIKL", "log2 fold change of degron read counts": 0.598}, {"sequence": "FECNQCGRIFTQKGNLLRHIKL", "log2 fold change of degron read counts": -0.592}, {"sequence": "FECNVCGALFTQKGNLLRHIKL", "log2 fold change of degron read counts": -1.84}, {"sequence": "FICDQCGAVFTQKGNLLRHIKL", "log2 fold change of degron read counts": -0.767}, {"sequence": "FRCEQCGAWFTQKGNLLRHIKL", "log2 fold change of degron read counts": -0.428}, {"sequence": "FDCEQCGAGFTQKGNLLRHIKL", "log2 fold change of degron read counts": -2}, {"sequence": "FRCPICGAQFTQKGNLLRHIKL", "log2 fold change of degron read counts": -0.505}, {"sequence": "FNCEICGHMFTQKGNLLRHIKL", "log2 fold change of degron read counts": -0.923}]}]}
